Among the data in PubChem BioAssay AID894 (National Center for Advancing Translational Sciences (NCATS), 2007) are activity change, negative = inhibition and Potency values, retold here.

About 6,500 (4.3%) of roughly 150,000 compounds were called active. Another 12% or so got no clear call; they are omitted. The call rests on the fitted dose curve; in most records, active means well fitted inhibition curve with a large enough effect (not every such curve was filed as active); inconclusive means small, poorly fitted or top-dose-only effect, or another doubt; inactive means no such curve, though single readings can be large or run the other way. Only a part is listed here, and it is no random draw. Where a structure was tested more than once in an assay, its records may differ in their call.
On the % scale 0 is the no-effect control and ±100 the full control effect; potency means the concentration at half of the fitted maximal effect.

This assay concerns the target 15-hydroxyprostaglandin dehydrogenase [NAD(+)] (Homo sapiens) (UniProt P15428). Nature of the assay: qHTS Assay for Inhibitors of HPGD (15-Hydroxyprostaglandin Dehydrogenase). To be noted: purified HPGD, NADH fluorescence kinetic, PGE2 substrate; activity change, negative = inhibition: active compounds read low. The source says: Human 15-Hydroxyprostaglandin dehydrogenase (HPGD) catalyzes the inactivation of prostaglandin E2, and plays a major role in cancer biology by antagonizing the oncogenic potential of cyclooxygenase type 2 (COX2). Assays are available, based on absorbance/fluorescence increase of NADH with the substrate 15-OH prostaglandin E2. References 1. Myung SJ, Rerko RM, Yan M, Platzer P, Guda K, Dotson A, Lawrence E, Dannenberg AJ, Lovgren AK, Luo G, Pretlow TP, Newman RA, Willis J, Dawson D, Markowitz SD. 15-Hydroxyprostaglandin dehydrogenase is an in vivo suppressor of colon tumorigenesis. […] 2. Yan M, Rerko RM, Platzer P, Dawson D, Willis J, Tong M, Lawrence E, Lutterbaugh J, Lu S, Willson JK, Luo G, Hensold J, Tai HH, Wilson K, Markowitz SD. 15-Hydroxyprostaglandin dehydrogenase, a COX-2 oncogene antagonist, is a TGF-beta-induced suppressor of human gastrointestinal cancers. Proc Natl Acad Sci U S A. 2004 Dec 14;101(50):17468-73. 3. Yang L, Amann JM, Kikuchi T, Porta R, Guix M, Gonzalez A, Park KH, Billheimer D, Arteaga CL, Tai HH, Dubois R, Carbone DP, Johnson DH. Inhibition of Epidermal Growth Factor Receptor Signaling Elevates 15-Hydroxyprostaglandin Dehydrogenase in Non-Small-Cell Lung Cancer. Cancer Res. 2007 Jun 15;67(12):5587-5593. Inhibition of HPGD activity was screened by utilizing prostaglandin as an electron donor and NAD+ as an electron acceptor/cofactor. An increase in the fluorescence intensity due to conversion of NAD+ to NADH was used to measure the enzyme activity. NIH Chemical Genomics Center [NCGC] Structural Genomics Consortium [SGC]
UniProt P15428, sequence (P15428 whole entry, looked up): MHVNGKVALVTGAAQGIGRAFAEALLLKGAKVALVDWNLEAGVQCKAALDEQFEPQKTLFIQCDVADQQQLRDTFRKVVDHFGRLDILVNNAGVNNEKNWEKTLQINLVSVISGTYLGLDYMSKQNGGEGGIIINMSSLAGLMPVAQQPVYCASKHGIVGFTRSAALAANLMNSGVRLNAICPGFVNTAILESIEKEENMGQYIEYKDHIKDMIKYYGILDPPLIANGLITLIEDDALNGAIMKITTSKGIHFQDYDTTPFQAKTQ
Buffer: 50 mM Tris-HCl, 0.01% Tween 20, pH 8. Enzyme Buffer: 50 mM Tris-HCl, 0.5 mM NAD+ and 0.01% Tween 20, pH 8. Reagents/Controls: Buffer in columns 3 and 4 as negative control (no enzyme). Substrate/cofactor solution: 1 mM NAD+ and 30 uM prostaglandin (Sigma, prostaglandin E2, # P5640) final concentrations dispensed throughout the plate. Enzyme: 20 nM HPGD final concentration in columns 1, 2, 5-48. Column 1 and 2 is neutral (100% activity). A titration of control inhibitor GW5074 (G6416 Sigma-Aldrich, St. Louis, MO) top concentration 10 mM in DMSO, then 1:2 dilution for a total of 16 concentrations in duplicate) was pin-transferred into column 2. Assay Steps: Three uL of enzyme were dispensed to 1536-well Greiner black solid bottom plates. Compounds and control inhibitor (23 nL) were transferred via Kalypsys PinTool. The plates were incubated for 15 min at room temperature, and then 1 uL of substrate/cofactor solution was added to start the reaction. The plates were immediately transferred to and read 5 times every 30 seconds on ViewLux High-throughput CCD imager (Perkin-Elmer) using 360 nm excitation and 450 nm emission fluorescence protocol. The fluorescence intensity difference between the last and the first time points was used to compute reaction progress.
As to `N#C/C(=C\c1ccc(O)c(O)c1)C(=O)Nc1ccccc1`, the activity change, negative = inhibition was inactive: -18.3%. In the case of `CCN(CC)C(=O)c1sc(NC(=O)c2ccc(C)c([N+](=O)[O-])c2)c(C#N)c1C`, the Potency was active: 28.2 µM. In the case of `NC(=O)/C(=N\OC(=O)c1ccco1)c1nc(-c2ccc(Br)cc2)cs1`, the Potency was active: 12.6 µM. For the molecule `Cc1ccc(/C=N/n2c(C3CCCCC3)n[nH]c2=S)s1`, the Potency was active: 11.2 µM. `Cc1c(Cc2ccccc2)c(=O)oc2cc(OCC(=O)c3ccccc3)ccc12`: the activity change, negative = inhibition is inactive: 115%. For the molecule `Cc1ccc(-c2c(C#N)c(N)nc3c2CCCC3)s1`, the activity change, negative = inhibition is inactive: 62.3%. For the molecule `CC(=O)c1cccc(NC(=S)NC(=O)CC(C)C)c1`, the Potency was active: 15.8 µM. `COCCOC(=O)C1=C(C)NC(SCC(=O)NC(C)(C)C)=C(C#N)C1c1ccco1` (stereo unspecified): the Potency was active: 15.8 µM. In the case of `O=C(/C=C/c1ccc(O)c(O)c1)OC(Cc1ccc(O)c(O)c1)C(=O)O` (stereo unspecified), the activity change, negative = inhibition is inactive: -15.1%. Still for that read-out and setting: with `COc1ccc(C(NC(=O)/C=C\c2ccco2)c2ccc(OC)c(OC)c2)cc1` (stereo unspecified) the figure was inactive: -20.1%; with `Cc1nc2ccc(NC(=O)c3ccc(F)c(S(=O)(=O)N4CCOCC4)c3)cc2s1`, inactive: 781%; with `N#C/C(=C\C=C\c1ccccc1)C(=O)Nc1ccccc1`, inactive: -9.48%. Still for that read-out and setting: with `Clc1ccc(-c2nnc(-c3ccc(Br)o3)o2)c(Cl)c1` the figure was inactive: 48.3%; with `Cc1cc(=O)c2cc(Cl)ccc2[nH]1`, inactive: -13.5%. For the molecule `CCOC(=O)C1CCCN(C(=O)CC(c2ccccc2)c2ccccc2)C1` (stereo unspecified), the Potency is active: 28.2 µM. Regarding `COc1cc(NS(=O)(=O)c2ccc(NC(=S)NC(=O)c3sc4ccccc4c3Cl)cc2)nc(OC)n1`, the Potency was active: 25.1 µM.
